# Data taken from ChEMBL document CHEMBL5308541, “MAIP: An Open-Source Tool to Enrich High-Throughput Screening Output and Identify Novel, Druglike Molecules with Antimalarial Activity” (ACS Med Chem Lett, 2023).
# In all, about 150,000 compounds went through this assay and about 540 (0.36%) showed an effect of 50% or more. Some of the results follow.
# Tested on: Plasmodium falciparum
# Test: Primary screen in NF54 nanoGlo assay, in single point, at 2uM, 72h; a lower Z score goes with more inhibition
# Format: functional, Erythrocyte
# Conditions: timepoint 72 hour
SMILES,% Inhibition,Z score
Cn1cc(Nc2cccc(NC(=O)[C@@H]3CCCCN3Cc3cccnc3)c2)cn1,-7%,1.04
COc1ccc(-c2cnn3ccccc23)cn1,-12%,2.08
Clc1ccc(-c2n[nH]c3ccc(Nc4cc(-c5ccccc5)ncn4)cc23)cc1Cl,1%,-0.21
CC(CN1CCN(C)CC1)NC(=O)C1CCN(CC2CCCc3ccccc32)C1 (centres undefined),4%,-0.96
O[C@H]1CCN(Cc2ccccc2CNc2cccc(-n3ccnc3)n2)C1,94%,-14.28
COc1cccc(-c2c(-c3ccccc3)ncn2[C@H]2CC[C@H](O)CC2)c1F,-1%,0.15
Cc1ccncc1N1CCN(C(=O)c2ccc(OC(F)F)nc2)CC1,-10%,2.21
c1ccc(CCN2CCC[C@H](CNCc3cnc(-c4ccccn4)nc3)C2)cc1,13%,-2.31
COCCC1(CNC(=O)c2ccc(CN)nc2C2CC2)CCCCC1,-12%,1.81
CCNc1cc(-c2nc(-c3cccn3C)cs2)ccn1,-5%,1
Cc1cnccc1NCCNCc1cnc(N2CCCCC2)nc1,57%,-12.25
CC(C)N(Cc1cc(-c2ccccc2)[nH]n1)C(=O)[C@@H]1CC2(CCNCC2)CN1,7%,-1.21
COCc1cccc(N[C@@H](C)c2nnnn2C2CCCCC2)c1,-8%,1.24
O=C(c1cc(-c2ccccc2F)n[nH]1)N1CCC(Nc2ccccn2)CC1,5%,-1.04
CCN1C[C@@H](Nc2ccc(-c3nc(CCCc4ccccc4)no3)cn2)CC1=O,-7%,1.57
Cc1cnc(-c2ccncc2)n1[C@H]1CCN(C2CCN(Cc3ccccc3)CC2)C1,-3%,0.53
CC[C@](NCc1cnn2c1CCC2)(C(=O)O)c1ccc(Cl)cc1,-8%,1.28
CCN(c1ccccc1F)S(=O)(=O)NC(=O)c1ccnc2ccccc12,-1%,0.17
Cc1ccc(-c2cn(-c3ccccc3)nc2/C=C/C23NC(=O)CN2c2ccc(C)cc2C3(C)C)cc1 (centres undefined),-6%,1.05
COCC(=O)Nc1ccc(C)c(NC(=O)c2cc(C)nc3c(C)c(C)ccc23)c1,-2%,0.3
O=C1CC[C@H](N2CCN(c3ccnc(N4CCCCC4)n3)CC2)CCN1,-4%,0.83

SMILES,% Inhibition,Z score
COc1ccc(CNc2nc(-c3ccc(Oc4ccc(Cl)cc4)cc3)cs2)c(C)c1OC,0%,0.05
Cc1ccc2[nH]c(C(=O)N3CCC(c4c[nH]c5ncccc45)CC3)cc2c1C,17%,-3.65
CC(C)CN1CCCN(c2nc(-c3ccncc3)nc3c2CNC3)CC1,-4%,0.79
NC(=O)c1nc([C@@H]2CCOc3ccccc32)no1,-8%,1.36
C[C@@H](c1cccc(-c2nccc3ncccc23)c1)N1CCCC1,-7%,1.08
Cn1ccnc1C(=O)NCC1CCN(C(=O)C(F)(F)F)CC1,-3%,0.59
O=C(NC1CCN(CC2CC2)CC1)c1n[nH]c2ccc(Cl)cc12,2%,-0.48
O=C(Nc1ccc(N2CCC(NC[C@@H](c3ccncc3)N3CCOCC3)CC2)cc1)C1CCCC1,-7%,1.25
O=C(NCc1cccnc1)c1ccc(N2CCC(NCC[C@H]3COc4ccccc4O3)CC2)cc1,0%,0.02
CN(C)c1cc(C(F)(F)F)nc(N[C@H]2CCCN(C(=O)N3CCCC3)C2)n1,2%,-0.37
CN1CC[C@H](Cn2cnc(-c3ccccc3)c2-c2cccc(F)c2F)C1,-4%,0.8
CN1CCN(Cc2ccccc2-c2ccc(Oc3nccn(C)c3=O)cc2)CC1,2%,-0.34
CCc1nc(N[C@H]2CC[C@@H](C(=O)N3CCCCC3)C2)c2ccsc2n1,-13%,2.31
Fc1ccc(C2(NCc3ccc(F)c4cccnc34)CCOCC2)cc1,9%,-1.92
Fc1ccc(-c2ccc(CNCc3cc4ccccc4[nH]3)s2)cc1,-5%,0.87
CN(C[C@H]1CCCO1)S(=O)(=O)c1ccc(C(=O)Nc2cccc(-c3nc4ccccc4[nH]3)c2)cc1,-13%,1.96
COCCN(Cc1ccc2c(c1)OCO2)C(=O)N[C@H]1CCCc2sccc21,4%,-0.67
c1csc(C2CCN(CCNc3ncnc4ncccc34)CC2)c1,1%,-0.14
CN1CCCC[C@@H]1CC(=O)N1CCC(c2cc[nH]n2)CC1,2%,-0.39
CCN1C[C@H](Nc2nc(C)nc3sccc23)[C@@H](OC)C1,99%,-21.25
Cn1c2ccc(C#Cc3ccccc3)cc2c2cc(C#Cc3ccccc3)ccc21,-2%,0.42

SMILES,% Inhibition,Z score
Nc1nc(-c2cccc3cnccc23)c2nc[nH]c2n1,-11%,1.66
CN(Cc1cc(O)c2cccc(F)c2n1)C1CCNCC1,-6%,1.16
Cc1noc(-c2cccnc2N2CCC(c3c(C)[nH]c4ccccc34)CC2)n1,11%,-2.41
CN1CCN(CCOc2ccccc2CN[C@H]2CCCN(C(=O)c3ccco3)C2)CC1,-4%,0.64
Cc1nnc([C@H](C)Nc2cccc(Oc3ccc(C#N)cc3)c2)o1,-3%,0.5
Oc1ccc(-c2ccnc3[nH]ccc23)cc1Cl,1%,-0.16
Cc1cc(NC(=O)N2Cc3cnn(CCO)c3C2)n(C2CCCC2)n1,-6%,1.25
Cc1ccc(N2N=C(C(=O)Nc3ccc4c(c3)CN(CCC(C)C)C4)NCC2=O)cc1,2%,-0.38
COc1cc(C(=O)N[C@H]2COCC2(C)C)cc(OC)c1C(C)C,-14%,2.12
Cc1ncsc1CN(C)S(=O)(=O)N1CCC(C)CC1,3%,-0.68
CC(C)c1nc(N[C@H]2CCCN(CC(F)(F)F)C2)nc(N(C)C)n1,-6%,0.84
CCn1c(C)cc(C)c(C(=O)N(C)C2COCC2O)c1=O (centres undefined),-4%,0.77
CCN1CCN(CC(=O)N2CCC(O)(CN3CCCC3)CC2)CC1,-1%,0.28
CN1CCN(C2(CNc3nc4c(c(=O)[nH]3)CCNC4)CCCCC2)CC1,-6%,1.23
Cc1ccc(C)c2[nH]c(-c3ccc(Oc4cnccn4)cc3)nc12,-18%,3.03
NS(=O)(=O)c1cnc(N[C@H]2CCCN(C3CCCCC3)C2)s1,-7%,1.32
O[C@@]1(CN2CCC3(CC2)CNc2ccccc23)CCCNC1,-2%,0.44
O=C(OCc1ccccc1)C1C2CCC(C2)C1NC1CCN(CC(F)(F)F)CC1 (centres undefined),-12%,2.49
C[C@@H]1CN(c2ccc(NC(=O)c3cc(-c4ccccc4)[nH]n3)cc2)C[C@H](C)O1,-4%,0.72
NC(=O)[C@H]1CCCN(CCCNc2nc(-c3ccccc3)nc3ccccc23)C1,2%,-0.31
Nc1cc(C(=O)N2CCC(CNC(=O)C[C@H]3CCc4ccccc43)CC2)[nH]n1,-11%,1.97

SMILES,% Inhibition,Z score
Cn1ccc2ccc(CN3CCCN(C4CCCC4)CC3)cc21,-6%,1.12
CC(=O)c1cc(C(=O)N(C)C[C@@H]2C[C@H](F)CN2c2nnc(C)o2)n(C)c1,0%,0.08
COc1ccc(F)c(F)c1CN(C)Cc1ncc[nH]1,-14%,2.79
CN(CCN1C(=O)c2ccccc2C1=O)C(=O)c1cc2occc2[nH]1,-11%,1.95
CC(C)NC(=O)c1ccnc(NCCCc2nc3cc(Cl)ccc3[nH]2)c1,-8%,1.24
O[C@@H]1CCCCC[C@H]1Nc1cccc(-n2ccnc2)n1,-11%,1.62
Clc1cccc(-c2ccnc(NCc3cc4n(n3)CCCNC4)n2)c1,0%,0.01
CC(=O)N1CC[C@H](Nc2cc(NCC3CC3)ncn2)C1,-1%,0.13
CN(Cc1ccc2ncccc2c1)C(=O)[C@@H](c1ccc(F)cc1)N1CCCCC1,-13%,2.7
CN(C)C1CCN(CCNC2CCC3CN(Cc4ccccc4)CC32)CC1 (centres undefined),18%,-3.94
Cc1nc(Nc2ccc(N)cc2)cc(NC2CCCCC2)n1,-8%,1.21
Cc1c(NC(=O)CN2CC3CN(C(=O)Cn4ncnn4)CC3(CO)C2)cnn1C (centres undefined),-6%,1.06
CCCCN1CCN(C(=O)c2ccc(-c3ccc4nc[nH]c4c3)cc2)CC1,-1%,0.13
COCCN1CCC(Nc2nccnc2NC2CCN(CCOC)CC2)CC1,1%,-0.15
Fc1cccc(CCNc2ccc3ccccc3n2)c1,-3%,0.46
COc1ccc(-c2ccc(C(=O)O)c(N3CCC[C@H](CCC(N)=O)C3)n2)cc1,-8%,1.49
c1cn(CCCN2CCCC[C@@H]2CCN2CCOCC2)cn1,-2%,0.26
N[C@H]1C[C@H](c2cc(NCc3ccc4c(c3)CCCO4)ncn2)C1,-9%,1.61
COCCN1CC[C@H](CN(C)C(=O)CN2CCCN(C)CC2)C1,-8%,1.4
